Data on two molecules can be found in patent publication US20110021424A1 (published 2011).

Changes are numbered by the printed parent chain.

Assay [1] deals with human Serum Albumine (HSA, Sigma, #A3782) (human, UniProt P02768 25-609). Put plainly: dot blot.
The target in assay [2] is holo-transferrin (Sigma, #T0665) (human, UniProt P02787 20-698). Briefly: dot blot.
In assay [3] the target is T1, Human PDGF-sRα (R&D Systems, #322-PR/CF) (human, UniProt P16234 24-524, limits assumed).
T1 construct: Bought; also called human PDGF-Rα; PDGF-Rα
Briefly: dot blot.

For assay [4], the target named is alpha-1 acid glycoprotein (RDI, #RDI-SCP-153-1) (human, UniProt P02763 19-201). Briefly: dot blot.
For assay [5], the target named is T2, alpha-2 macroglobulin (MP biomedicals/Cappel, #55833) (human, UniProt P01023 24-1474).
T2 sequence (looked up): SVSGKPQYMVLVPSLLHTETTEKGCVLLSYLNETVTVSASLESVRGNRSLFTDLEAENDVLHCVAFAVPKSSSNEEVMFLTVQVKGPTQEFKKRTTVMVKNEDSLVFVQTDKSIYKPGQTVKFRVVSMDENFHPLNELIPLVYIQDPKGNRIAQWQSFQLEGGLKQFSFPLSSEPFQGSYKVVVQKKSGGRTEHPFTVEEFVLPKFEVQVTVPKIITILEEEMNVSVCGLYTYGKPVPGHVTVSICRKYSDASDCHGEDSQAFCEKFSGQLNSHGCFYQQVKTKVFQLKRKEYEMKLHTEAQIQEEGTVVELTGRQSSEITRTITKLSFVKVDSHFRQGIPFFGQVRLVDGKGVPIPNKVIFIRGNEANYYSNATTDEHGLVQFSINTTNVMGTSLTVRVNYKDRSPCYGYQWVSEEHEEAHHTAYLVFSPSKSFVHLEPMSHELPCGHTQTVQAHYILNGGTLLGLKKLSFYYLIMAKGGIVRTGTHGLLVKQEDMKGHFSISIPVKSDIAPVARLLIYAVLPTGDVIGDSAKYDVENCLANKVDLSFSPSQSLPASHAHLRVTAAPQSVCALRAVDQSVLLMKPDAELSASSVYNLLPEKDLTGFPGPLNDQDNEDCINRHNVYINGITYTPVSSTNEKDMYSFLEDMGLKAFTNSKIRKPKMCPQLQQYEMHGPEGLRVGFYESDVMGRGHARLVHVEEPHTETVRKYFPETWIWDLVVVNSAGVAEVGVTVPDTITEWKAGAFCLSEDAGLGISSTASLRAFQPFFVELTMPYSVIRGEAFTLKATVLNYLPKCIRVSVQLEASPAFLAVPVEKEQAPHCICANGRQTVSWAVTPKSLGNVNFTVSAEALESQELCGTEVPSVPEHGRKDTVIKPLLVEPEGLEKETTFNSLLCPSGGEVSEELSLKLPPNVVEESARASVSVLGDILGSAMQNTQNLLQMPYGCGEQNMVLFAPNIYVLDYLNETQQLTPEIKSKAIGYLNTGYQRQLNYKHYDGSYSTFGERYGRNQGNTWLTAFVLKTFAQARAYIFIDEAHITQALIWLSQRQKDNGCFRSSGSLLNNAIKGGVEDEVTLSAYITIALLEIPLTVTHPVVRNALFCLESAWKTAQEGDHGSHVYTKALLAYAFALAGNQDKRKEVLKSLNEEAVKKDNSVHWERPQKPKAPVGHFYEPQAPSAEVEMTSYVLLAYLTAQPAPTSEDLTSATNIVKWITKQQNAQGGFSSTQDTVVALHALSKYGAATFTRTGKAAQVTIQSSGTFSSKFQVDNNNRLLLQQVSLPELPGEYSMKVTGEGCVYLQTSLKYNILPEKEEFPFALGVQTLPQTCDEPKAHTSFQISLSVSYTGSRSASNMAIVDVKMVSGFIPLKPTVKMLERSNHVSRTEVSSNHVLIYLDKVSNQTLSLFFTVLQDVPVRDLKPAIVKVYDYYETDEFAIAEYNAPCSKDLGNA
Put plainly: dot blot.

For assay [6], the target named is alpha-1-antitrypsin (RDI, #RDI-SCP-165-5) (human, UniProt P01009 25-418). Put plainly: dot blot.
Assay [7] addresses T3, Murine PDGF-Rβ-Fc (R&D Systems, #1042-PR/CF) (murine, UniProt P05622 32-530, limits assumed).
T3 construct: Bought; also called mouse PDGF-Rβ; mPDGF-Rβ; not shown: Fc part, bought, not described
T3 sequence (looked up): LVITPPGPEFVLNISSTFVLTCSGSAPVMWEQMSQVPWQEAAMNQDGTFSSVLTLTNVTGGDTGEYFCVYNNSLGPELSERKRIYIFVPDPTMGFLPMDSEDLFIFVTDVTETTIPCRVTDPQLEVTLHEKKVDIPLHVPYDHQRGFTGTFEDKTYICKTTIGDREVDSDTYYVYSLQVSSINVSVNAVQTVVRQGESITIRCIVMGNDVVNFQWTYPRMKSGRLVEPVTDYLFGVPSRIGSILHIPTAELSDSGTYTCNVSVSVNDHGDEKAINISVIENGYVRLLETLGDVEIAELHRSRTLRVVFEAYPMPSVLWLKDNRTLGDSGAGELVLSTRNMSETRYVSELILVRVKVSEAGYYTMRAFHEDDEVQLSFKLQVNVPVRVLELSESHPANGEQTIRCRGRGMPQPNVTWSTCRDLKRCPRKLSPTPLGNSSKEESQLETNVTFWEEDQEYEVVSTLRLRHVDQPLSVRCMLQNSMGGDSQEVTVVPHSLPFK
Briefly: dot blot, dimeric Z variant.

B1: His6-(Z02465)2-Cys (designed binder)
chain: MGSSHHHHHHLQVDNKFNKELIEAAAEIDALPNLNRRQWNAFIKSLVDDPSQSANLLAEAKKLNDAQAPKVDNKFNKELIEAAAEIDALPNLNRRQWNAFIKSLVDDPSQSANLLAEAKKLNDAQAPKVDC
notes: also called Z02465 (dimer)
For B1, the binding result in assay [1], in assay [2], in assay [3], in assay [4], in assay [5] and in assay [6] was “no binding” throughout. For the same molecule, in assay [7], the binding result is listed as “binds”.

B2: His6-(Z02483)2-Cys (designed binder)
chain: B1 chain with I22V, E23K, I80V, E81K
notes: also called Z02483 (dimer)
B2: the binding result in assay [1], in assay [2], in assay [3], in assay [4], in assay [5] and in assay [6] was “no binding” in each case. For the same molecule, the binding result in assay [7] is recorded as “binds”.
